Assay results taken from the supplement of paper PMC11417369.
± gives the standard deviation of the averaged measurements. This is one part of the list.

tested on: PfAP2-I AP2 domain 3 (GST-tagged); assay: gcPBM binding intensity (ln(normalized median fluorescence intensity)); higher = stronger DNA binding
Outline: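 In this array assay, P. falciparum DNA-binding domains with a GST tag, expressed in E. coli, were applied for 1 h to primer-extended double-stranded 36-bp intergenic genomic probes and negative controls on an Agilent 4 × 180k array. Bound protein was visualised with Alexa488 anti-GST antibody at 488 nm. Binding intensity is the highest Masliner-normalised natural-log median intensity across replicate spots of either probe orientation.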

| Sequence | gcPBM binding intensity (ln) |
| --- | --- |
| CGCGTATAACGAAATTGTACAAAAAAAATTAAACAT [XGTACX_site6813] | 8.05 ± 0.59 |
| CTTTCATATGTTTTAACACACACGCATATATTATAT [CACACA_site8615] | 8.28 ± 0.54 |
| TTTTTTTTTTTGATTTGTACACAAAAAAAATATATG [XGTACX_site4547] | 8.1 ± 0.71 |
| TTTTTTTTTTGATGTTGTACATATATATTATATATA [XGTACX_site6377] | 8.02 ± 0.48 |
| TTTTTTTTTTTTTTTTGTACATATTTTTAAACTATA [XGTACX_site2897] | 8 ± 0.59 |
| AGATATATGGACGACTCACACATTTAAATTCATTCA [CACACA_site6047] | 7.88 ± 0.59 |
| ATTTATTTGTTTGTTTTTTTTACGATTTTTATTTTT [CACACA_negctrl_site1138] | 7.69 ± 0.67 |
| CGTATTTATATAATTACACACCATATTTTAATTATT [CACACA_site5960] | 7.91 ± 0.47 |
| ATAAACAATTAACAAACATGCAAATTTTAAATGTGT [TGCATGCA_site919] | 7.62 ± 0.73 |
| ATCTATGATATATACACACACATGTATAAATAAATA [CACACA_site7012] | 7.75 ± 0.47 |
| TAATTTTTTTTTCTTGTACACACTATTTTATAATTT [CACACA_site4078] | 8.09 ± 0.44 |
| ATTTTTTTATAAAATTTTTATATATTATATAAATAT [GTGCAC_negctrl_site163] | 7.57 ± 0.58 |
| TAAAAATAGTATACAACACACGAGGGAAAATAAAGT [CACACA_site3837] | 8.74 ± 0.74 |
| TATCGAGCACGGCGTGTGGAGTTACAAAGAGGAGAA [CACACA_negctrl_site40] | 8 ± 0.67 |
| AAATGTATAATATTTTCACACACAAGAAAAAAGAAA [CACACA_site9195] | 7.75 ± 0.49 |
| AGAAATGAAATATACACACATACATATATACATATA [CACACA_site4033] | 7.66 ± 0.47 |
| ACCCTCATATTATAGACACACACAAAAAAAATAAAA [CACACA_site7941] | 8.04 ± 0.23 |
| ATTAATAATGAGTTATGTACATACATATTTTAAGAT [XGTACX_site7543] | 7.96 ± 0.49 |
| TAAATACACCCTAGACGTACATAAAAATTTAGTATG [XGTACX_site2512] | 7.84 ± 0.33 |
| AAAAACAAACTGTGCATGCACCAAAAAAAAAAAAAA | 10.4 ± 0.35 |
| TAAACATACATATACACACACACACCCACACCCACA [CACACA_site492] | 8.06 ± 0.28 |
| TGTCCTTATGGGCACACACACATATAAGAAATTTAA [CACACA_site3187] | 7.96 ± 0.31 |

| Sequence | gcPBM binding intensity (ln) |
| --- | --- |
| ATATTTATATATATGTGTACATATAGAAACATAAAA [XGTACX_site4355] | 7.88 ± 0.39 |
| CTTCTTATTTTCTAATGTACGTACAAATCATTTATA [XGTACX_site2176] | 8.45 ± 0.34 |
| TTTTTTTTTTTAATTTGTACGAATCTTTTTATTTTA [XGTACX_site4516] | 7.81 ± 0.81 |
| TATATAAAAAAACAAAGTACATGTTCTTAATCATTT [XGTACX_site8446] | 7.52 ± 0.45 |
| AAATGAACAAGTGGCACACACACATCATAACTAATT [CACACA_site5730] | 8.25 ± 0.47 |
| CAAAATATATATACCACACACACATACCTCTATTTG [CACACA_site1853] | 7.97 ± 0.44 |
| ATATATTTTTTCTTAACACACATATATAAAATAAAA [CACACA_site3500] | 7.93 ± 0.42 |
| CACGCGAACATACATACACACACATATATATATATG [CACACA_site7951] | 7.94 ± 0.4 |
| TATATATATATATACACACACACACCGATATATATA [CACACA_site8813] | 9.32 ± 0.47 |
| AAATATAATATATGCACACATACATACAGATATATA [CACACA_site4235] | 9.22 |
| ATAAATATAGGACACACACACATATTATATATATAT [CACACA_site5658] | 9.04 ± 0.13 |
| ATAATATAAATATGCACACAAATTATTACCCAAAAA [CACACA_site2524] | 8.79 ± 0.18 |
| GTTATATTCCTACAGAGTACATAAAAATGCACATCA [XGTACX_site1948] | 8.46 ± 0.39 |
| TTGCCCATTTAATTAACACACAAATGTTTATATTCT [CACACA_site6488] | 7.94 ± 0.51 |
| TTTGAAATAAGCAAATGTACATTATTATTAAATATA [XGTACX_site6158] | 7.53 ± 0.45 |
| TTCACATACAGAAACACACACATATATATAAATTAA [CACACA_site3705] | 7.81 ± 0.42 |
| TGTATGATAACTATAGTGCATTTGGTAATTTTTCCA | 9.79 ± 0.18 |
| TATTTCATGATACAATGTACATGTATATATGATACC [XGTACX_site5057] | 7.92 ± 0.46 |
| AATAATATATATTACACACGCATCGTTCATTTATTT [CACACA_site2391] | 7.87 ± 0.92 |
| ATATATACATATATTACACACTTCTTATTCTAAGAA [CACACA_site3022] | 7.71 ± 0.49 |
| CTAGCAAATACATACACACACACACCGATACAGATA [CACACA_site5853] | 7.96 ± 0.42 |
| TCCATAAAAATGGATACACACACATAATATATATAT [CACACA_site9207] | 8.79 ± 0.13 |
